From the RNAGym collection of RNA variant scans (doi:10.1101/gad.245936.114) come the findings set out here.

First the molecules themselves.
B1: tRNA (parent)
chain: CUCUCGGUAGCCAAGUUGGUUUAAGGCGCAAGACUUUAAUUUAUCACUACGAAAUCUUGAGAUCGGGCGUUCGACUCGCCCCCGGGAGAUUUUUUCCUCGAGCAA

Variants at the floor of the assay are shown more often than the library holds them. Some results are limits rather than exact numbers.

Variants of B1 are the subject of the data set. Description: nonsense suppression (GFP-seq) (ratio to wild type); higher = more function; SUP4oc tRNA, yeast GFP reporter sort-seq. A digest of the protocol:
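Yeast were grown in raffinose/galactose medium with 80 mg/L adenine, each strain bearing a genome-integrated ochre-suppressor tRNA variant from a ~3% random-mutation library, a galactose-driven GFP ochre reporter, and RFP. After sorting into GFP/RFP bins, every bin was sequenced on an Illumina platform at phred ≥30. The GFPSEQ value, a measure of nonsense suppression, is the weighted bin median GFP/RFP relative to the unmutated parent tRNA, using each variant's estimated cell share per bin as the weight. Only variants with ≥100 reads and ≥30 cells were included.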
As for AUCUCGGUAGCCAAGUUGGUUUAAGGCGCAAGACUUUAAUUUAUCACUACGAAAUCUGGAGAUCGGGCGUUCGACUCGCCCCCGGGAGAUUUUUUCCUCGAGCAA, the nonsense suppression is not above 0.026. For CUGUCGGUAGCCAAGUUUGUUUAAGGCGCAAGACUUUAAUUUAUCACUACGAAAUCUUGAGAUCGGGCGUUCGACUCGCCCCCGGGAGAUUUUUUCCUCGAGCAA the value was not above 0.026.

For CGCUCGGUAGCCAAGUUGGUUUAAUGCGCAAGACUUUAAUUUAUCACUACGAAAUCGUGAGAUCGGGCGUUCCACUCGCCCCCGGGAGAUUUUUUCCUCGAGCAA, the nonsense suppression was not above 0.026. For CUCUCGGUAUCCAAGUUGGUUUAAGGCGCAAGACUUUAAUUUAUCACUACGAAACCUUGAGAUCGGGCGUUCGACUCCCCCCCGGGAGCUUUUUUCCUCGAGCAA the value was not above 0.026. The same measure for CUCUCGGUAGCCAGGUUAGUUUAAGGCGCAAGACUUUAAUUUAUCACUACGAAAUCUUGAGAUCGGGCGUUCGACUCGCCCCCGGGAGAUUUUUUCCUCGAGCAA: not above 0.026; for CUAUCGGUAGCCAAGUUGGUUUAAGGCGCACGAUUUUAAUUUAUCACUACGAAAUCUUGAGAUCGGGCGUUCUACUCGCCCCCGGGAGAUUUUUUCCUCGAGCAA: not above 0.026. For CUGUCGGUAGCCAAGUUGGUUUAAGGCACAAGACUUUAAUUUAUCACUACGAAACCUUGAGAUCGGGCGUUCGACUCGCCCCCGGUAUAUUUUUUCCUCGAGCAA the value was not above 0.026; for CUCUCGGUAGCCAAGUUGGUUUAAUGCGCAAGACUUUAAUUUAUCACUACGAAAUCUUGAGAUCGGGCUUUCGACUCGCCCCCGGGAGAUUUUUUCCUCGAGCAA, not above 0.026.

Consider CUCUCGGUACCCAAGUUGGUUUAAGGCGCCAGACUUUAAUUUAUCACUACGAAAUCUUGAGAUCGGGCGUUCGACUCGCCCUCGGGAGAUUUUUUCCUCGAGCAA, for which the nonsense suppression was not above 0.026. Take CUCUCGGUAGCCAAGUUGGUUUAAGGCGCAAGACCUUAAUUUAUCACUACGAAAUCUUCAGAUCGGGCGUUCGACUCGCCCCCGGGAGAUUUUUUCCUCGAGCAA: the nonsense suppression is not above 0.026. CUCUCGUUAGCCAAGUUGGUUUAAGGCUCAUGACUUUAAUUUAUCACUACGAAAUCUUGAGAUCGGCCGUUCGACUCGCCCCCGGGAGAUUUUUUCCUCGAGCAA: the nonsense suppression was not above 0.026. With CUCUCGGUAGCCAAGUUGGUUUAAGGCGCAAGACCUUAAUUUAUCACUACGAAAUCUUGAGAUCGGGCGUUCGACUCGACCCCGGGAGAUUUUUUCCUCGAGCAA, the nonsense suppression is not above 0.026. In the case of CUCUUGGUAGCCAAGUUGGUUUAAGGCGCAAGACUUUAAUUUAUCACUACGAAAUCUUGAGAUCGGGAGUUCGACUCGCCCCCGGGAGAUUUUUUCCUCGAGCAA, the nonsense suppression was not above 0.026. The same measure for AUUUCGGUAGCCAAGUUGGUUUAAGGCGCAAGACUUUAAUUUAUCACUACGAAAUCUUGAGAUCGGGCGGUCGACUGGCCCCCGGGAGAUUUUUUCCUCGAGCAA: not above 0.026; for CUCUCAGUAGCCAAGUUAGUUUAAGGCGCAAGACUUUAAUUUAUCACUACGAAAUCUUGAGAUCGGGCGUUCGACUCGCCCCCGGGAGAUUUUUUCCUCGAGCAA: not above 0.026. For CUCUCGGUAGCCAAGUUGGUUUACGGCGCAAGACUUUAAUUUAUCACUACGAAAUCUUCAGAUCGGGCGUUCGACUCGCCCCCGGGAGAUUUUUUCCUCGAGCAA the value was not above 0.026.

As for CUCGCGGUAGCCAAGUUGGUUUAAGGCGCAAGACUUUAAUUUAUCACUACGAAAUCUUGAGAUCGGGCGUUCGACUUGCCCCCGGGAGAUUUUUUCCUCGAGCAA, the nonsense suppression turned out to be 0.0723. The same measure for CUCUCGGUAGCCAAGUUGGUUUAAGGCGCAAGACUUUAAUUUAUCACUACGAAGUCUUGAGAUCGGGCGUUCGACUCGCCCCCGAGAGAUUUUUUCCUCGAGCAA: not above 0.026. The same measure for CUCUCGGUAGCCAAGUUGGUUUAAGGCGCAAGACUUUAAUUUAUCACUACGAAAUCUUGAGAUCGGGCGUUCGACUCGCCGCCGGGAGUUUUUUUCCUCGAGCAA: not above 0.026; for CUCUCGGUCGCCAAGUUGGUUUAAGGCGCAAGACUUUAAUUUAUCACUACGAAAUCUUGAGAUCGGGCCUUCAACUCGCCCCCGGGAGAUUUUUUCCUCGAGCAA: not above 0.026. For CUCUCGGUAGCCAAAUUGGUUUAAGGCGCCAGACUUUAAUUUAUCACUACGAAAUCUUUAGAUCGGGCGUUCGACUCGACCCUGGGAGAUUUUUUCCUCGAGCAA the value was not above 0.026; for CUCUCGGUAGCCAAUUUGGUUUAAGGCGCAAGACUUUAAUUUAUCACUACGAAAUCUUGAGUUUGGGCGUUCGACUCGCCCCCGGGAGAUUUUUUCCUCGAGCAA, not above 0.026.

In the case of CUCUCGGUAGCCAAGUUGGUUUAAGGCGCAAGACUUUAAUUUAUCACUACGAAAGCUUGAGAUCGGGCGUUAGACUCGCCCCCGGGAGAUUUUUUCCUCGAGCAA, the nonsense suppression was not above 0.026. For CUCUCGGUAGCCAAGUUGGUUUAAGGCGCAAAACUUUAAUUUAUCACUACGAAAUCUUGAGAUCGAGCGUUCGACUCGCCCCCGGGAGAUUUUUUCCUCGAGCAA, the nonsense suppression is not above 0.026. The same measure for UUCUCGGUAGCCAAAUUGGUUUAAGGUGGAAGACUUUAAUUUAUCACUACGAAAUCUUGAGAUCGGGCGUUCGACACGCCCCCGGGAGAUUUUUUCCUCGAGCAA: not above 0.026; for CUCUCGGUAGCCAAGUUGGUUUAAGGCGUAAGACUUUAAUUUAUCACUACGAAAUCUUGAGAUAGGGCGUUCGACUCGCUCCCGGGAGAUUUUUUCCUCGAGCAA: not above 0.026; for CUCUCGGUAGCCGAGUUGGUUUAAGGCGCAAGACUUUAAUUUAUCACUACGAAAUCUUGAGAUCGGCCGUUCGACUCGCCCCCGGGAGAUUUUUUCCUCGAGCAA: not above 0.026. For CUCUCGGUAGCCAAGAUGGUUUAAGGAGCAAGACUUUAAUUUAUCACUACGAAAUCUGGAGAUCGGGCGUUCGACUCGCCCCCGGGAGAUUUUUUCCUCGAGCAA the value was not above 0.026. The same measure for UUCUCGCUAGCCAAGUUGGUUUAAGGCGCAAGACUUUAAUUUAUCACUACGAAAUCUUGAGAGCGGGCGUUCGAUUCGCCCCCGGGAGAUUUUUUCCUCGAGCAA: not above 0.026; for CCCUCGGUAGCCAAGUUGGUUUAAGGCGCACGACUUUAAUUUAUCACUACGAAAUCUUGAGAUCGGGCGUUCGACUCGCCCCCGGGAGAUUUUUUCCUCGAGCAA: not above 0.026; for CUCUCGGUAGCCAAGUUGGUUUAAGGUGCAAGACUUUAAUUUAUCACUACGAACUCUUGAGAUCGGGCGUUCGACUCGCCCCCGGGAGAUUUUUUCCUCGAGCAA: 0.0314.

CUCUCGGUAGCCAAGUCGGUUUAAGGCGCAAGACUUUAAUUUAUCACUACGAAAUCUUGAAAUCGGGCGUUCGACUCGCCCCCGGGAGAUUUUUUCCUCGAGCAA: the nonsense suppression amounted to 0.235. For CUCUCGCUCGCCAAGUUGGUUUAAGGCGCAAGACUUUAAUUUAUCACUACGAAAUCCUGAGAUCGGGCGUUCGAAUCGCCCCCGGGAGAUUUUUUCCUCGAGCAA the value was not above 0.026. The same measure for CUCUCGGUAGCCAAGUUGGUUUAAGGCGCAAGACUUUAAUUUAUCACUACGAAAAAUUGAGAUCGAGCGUUCGACUCGCCCCCGGGAGAUUUUUUCCUCGAGCAA: not above 0.026; for CUCUCGGUAGGCAAGUUGGUCUAAGGCGCAAGACUUUAAUUUAUCACUACGAAAUCUUGAGAUCGGGCGACCGACUCGCCCCCGGGAGAUUUUUUCCUCGAGCAA: not above 0.026; for CUCUCGGUUGCCAAGUUGGUUUAAGGCGCAAGACUUUAAUUUAUCACUACGAAAUCUUGAGAUCGGGCGAUCGACUCGCCCCCGGGAGAUUUUUUCCUCGAGCAA: not above 0.026. For CUCUCGGUAGCCAAAUUGGUUUAAGGCGCAAGACUUUAAUUUAUCACUACGAAAGCUUGAGAUCGGGCGUUCGACUCGCCCCCGGGAGAUUUUUUCCUCGAGCAA the value was not above 0.026; for CUCUCGGUAGCCAAGUUGGUUUAAGACGCAAUACUUUAAUUUAUCACUACGAAAACUUGAGAUCGGGCGUUCGACUCGCCCCCGGGAGAUUUUUUCCUCGAGCAA, not above 0.026; for CCCUCGGUGGCCAAGUUGGUUUAAGGCGCAAGACUUUAAUUUAUCACUACGAAAUCUUGAGAUCGGGCGUUCGACUCGCCCCCUGGAGAUUUUUUCCUCGAGCAA, not above 0.026. As for CUCUCGGUAGCCAAGUUGGUUUAAGGCGCACGACUUUAAUUUAUCACUACGAAAUCUUGAGAUCGGGCUUUCGACUCGCCCCCGGGAGAUUUUUUCCUCGAGCAA, the nonsense suppression was not above 0.026.

On to CUCUGGGUAGCCAAGUUGGUUUAAGGCGCAAGACUUUAAUUUAUCACUACGAAAUCUUGAGAUCGGGCGUUCUACUCGCCCCCGGGAGCUUUUUUCCUCGAGCAA, for which the nonsense suppression was not above 0.026. The same measure for CUCUCGCUAGCCAAGUUGGUUUAAGGCGAAAGACUUUAAUUUAUCACUACGAAAUCUUGAGAUCGGGCGUUCGACUCGCCCCCGGGAGUUUUUUUCCUCGAGCAA: not above 0.026; for CUCUCGGUAGCCGAGUUGGUUUAAGGCGCAAGAUUUUAAUUUAUCACUACGAAAUCUUGAGAUCCGGCGUUCGACUCGCCCCCGGGAGAUUUUUUCCUCGAGCAA: not above 0.026; for AUCUCGUUAGCCAAGUUGGAUUAAGGCGCAAGACUUUAAUUUAUCACUACGAAAUCUUGAGAUCGGGCGUUCGACUCGCCCCCGGGAGAUUUUUUCCUCGAGCAA: not above 0.026.

CUGUCGGUAGCCAAGUUGGUUUAAGGCGCAAGACUUUAAUUUAUCACUACGAAAUCUGGAGAUCGGGCGUUCGACGCGCCCCCGGGAGAUUUUUUCCUCGAGCAA: the nonsense suppression is not above 0.026. CUCUCGGUAGCCAAGUUGGUUUAAGGCGCAAGACUUUAAUUUAUCACUACGAAAUGUUGAGAUCGGGCGUUCGCCUCGCCCCCGGGAGAUUUUUUCCUCGAGCAA: the nonsense suppression was not above 0.026. The same measure for CUUUCGGUAGCCAAGUUGGUUUAAGGCGCAAGACUUUAAUUUAUCACUACGAAAUCUUGAGAUCGGGCGUUCGACUCGCCCCAGGGAGAUUUUUUCCUCGAGCAA: not above 0.026; for CUCUGGGUAGCCAAGUUGGUUUAAGGCGCAAGACUUUAAUUUAUCACUACGAAAUCUUGAGUUCGGGCGUUCGACUCGCCCCCGGGAGAUUUUUUCCUCGAGCAA: not above 0.026. For CUCUCGGUAGCCAAGGUAGUUUAAGGCGCAAGACUUUAAUUUAUCACUACGAAAUCUUGAUAUCGGGCGAUCGACUCGCCCCCGGGAGAUUUUUUCCUCGAGCAA the value was not above 0.026; for CUCUCGGUAGCCAAGUUGGUUUAAGCCGCAAGACUUUAAUUUAUCACUACGAACUCUUGAGAUCGGGCGUUCUACUCGCCCCCGGGAGAUUUUUUCCUCGAGCAA, not above 0.026; for CUCUCGGUAGCCAAGUUGGUUUAAGGCGCAAGAAUUUAAUUUAUCACUACGAAACCUUGAGAUCGGGCGUUCGACACGCCCCCGGGAGAUUUUUUCCUCGAGCAA, not above 0.026. For CUCUCGGUAGCCGAGUUGGUUUAAGGCGCAAGAUUUUAAUUUAUCACUACGAAAUCUUGAGAUCGGGCGUUCGACUCGCCCCCGGGAGAUUUUUUCCUCGAGCAA, the nonsense suppression was not above 0.026. For CUAUCGGUAGCCAAGUUGGUUUAAGGCGCAAGACUUUAAUUUAUCACUACGAAAACGUGGGAUCGGGCGUUCGAGUCGCCCCCGGGAGAUUUUUUCCUCGAGCAA the value was not above 0.026; for CUCCCGGUAUCAAAGUUGGUUUAAGGCGCAAGACUUUAAUUUAUCACUACGAAAUCUUGAGAUCGGGCGUUCGACCCGCCCCCGGGAGAUUUUUUCCUCGAGCAA, not above 0.026.
